The record followed here is publication PMC9911399, “Two distinct binding modes provide the RNA-binding protein RbFox with extraordinary sequence specificity”.

Residue numbers refer to the chain shown, from its start. This is one part of the list.

T1: RBFOX1 RRM RbFoxmut (Fox-RRM*) (Homo sapiens, UniProt Q9NWB1 109-208, R118D;E147R;N151S;E152T)
T1 sequence: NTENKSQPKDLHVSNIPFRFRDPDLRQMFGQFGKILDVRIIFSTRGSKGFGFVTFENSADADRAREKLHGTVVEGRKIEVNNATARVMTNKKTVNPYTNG

B1: UCCCUCU (DNA:RNA)
RNA: GGGAGACCGGAAUUCAGAUUGUCCUCCCUCUUUAAAUCCCGUCGUAGCCACCA
DNA 1: CAATCTGAATTCCGGTCTCCC
DNA 2: TGGTGGCTACGACGGGATT
B2: ACCGCAU (DNA:RNA)
RNA: B1 RNA with U25A, C28G, U29C, C30A
DNA 1: CAATCTGAATTCCGGTCTCCC
DNA 2: TGGTGGCTACGACGGGATT
B3: CGCCCCU (DNA:RNA)
RNA: B1 RNA with U25C, C26G, U29C
DNA 1: CAATCTGAATTCCGGTCTCCC
DNA 2: TGGTGGCTACGACGGGATT
B4: GGGGAGA (DNA:RNA)
RNA: GGGAGACCGGAAUUCAGAUUGUCCGGGGAGAUUAAAUCCCGUCGUAGCCACCA
DNA 1: CAATCTGAATTCCGGTCTCCC
DNA 2: TGGTGGCTACGACGGGATT
B5: CAAAAAA (DNA:RNA)
RNA: B4 RNA with G25C, G26A, G27A, G28A, G30A
DNA 1: CAATCTGAATTCCGGTCTCCC
DNA 2: TGGTGGCTACGACGGGATT
B6: GUAGCUG (DNA:RNA)
RNA: B4 RNA with G26U, G27A, A29C, G30U, A31G
DNA 1: CAATCTGAATTCCGGTCTCCC
DNA 2: TGGTGGCTACGACGGGATT
B7: UUGUCUC (DNA:RNA)
RNA: B4 RNA with G25U, G26U, G28U, A29C, G30U, A31C
DNA 1: CAATCTGAATTCCGGTCTCCC
DNA 2: TGGTGGCTACGACGGGATT
B8: GUAUGCU (DNA:RNA)
RNA: B1 RNA with U25G, C26U, C27A, C28U, U29G
DNA 1: CAATCTGAATTCCGGTCTCCC
DNA 2: TGGTGGCTACGACGGGATT
B9: GUAGGUA (DNA:RNA)
RNA: B4 RNA with G26U, G27A, A29G, G30U
DNA 1: CAATCTGAATTCCGGTCTCCC
DNA 2: TGGTGGCTACGACGGGATT
B10: AAAUUCU (DNA:RNA)
RNA: B1 RNA with U25A, C26A, C27A, C28U
DNA 1: CAATCTGAATTCCGGTCTCCC
DNA 2: TGGTGGCTACGACGGGATT
B11: UGAUUCG (DNA:RNA)
RNA: B1 RNA with C26G, C27A, C28U, U31G
DNA 1: CAATCTGAATTCCGGTCTCCC
DNA 2: TGGTGGCTACGACGGGATT
B12: UACCCUA (DNA:RNA)
RNA: B1 RNA with C26A, U29C, C30U, U31A
DNA 1: CAATCTGAATTCCGGTCTCCC
DNA 2: TGGTGGCTACGACGGGATT
B13: AACGCUC (DNA:RNA)
RNA: B4 RNA with G25A, G26A, G27C, A29C, G30U, A31C
DNA 1: CAATCTGAATTCCGGTCTCCC
DNA 2: TGGTGGCTACGACGGGATT
B14: CUAGAUC (DNA:RNA)
RNA: B4 RNA with G25C, G26U, G27A, G30U, A31C
DNA 1: CAATCTGAATTCCGGTCTCCC
DNA 2: TGGTGGCTACGACGGGATT
B15: GUAGGCA (DNA:RNA)
RNA: B4 RNA with G26U, G27A, A29G, G30C
DNA 1: CAATCTGAATTCCGGTCTCCC
DNA 2: TGGTGGCTACGACGGGATT
B16: AUUCAAG (DNA:RNA)
RNA: B4 RNA with G25A, G26U, G27U, G28C, G30A, A31G
DNA 1: CAATCTGAATTCCGGTCTCCC
DNA 2: TGGTGGCTACGACGGGATT
B17: CAUGCAA (DNA:RNA)
RNA: B4 RNA with G25C, G26A, G27U, A29C, G30A
DNA 1: CAATCTGAATTCCGGTCTCCC
DNA 2: TGGTGGCTACGACGGGATT
B18: UAAUUCG (DNA:RNA)
RNA: B1 RNA with C26A, C27A, C28U, U31G
DNA 1: CAATCTGAATTCCGGTCTCCC
DNA 2: TGGTGGCTACGACGGGATT
B19: GUGAACG (DNA:RNA)
RNA: B4 RNA with G26U, G28A, G30C, A31G
DNA 1: CAATCTGAATTCCGGTCTCCC
DNA 2: TGGTGGCTACGACGGGATT
B20: UCGGAAG (DNA:RNA)
RNA: B4 RNA with G25U, G26C, G30A, A31G
DNA 1: CAATCTGAATTCCGGTCTCCC
DNA 2: TGGTGGCTACGACGGGATT
B21: CUAGGUA (DNA:RNA)
RNA: B4 RNA with G25C, G26U, G27A, A29G, G30U
DNA 1: CAATCTGAATTCCGGTCTCCC
DNA 2: TGGTGGCTACGACGGGATT
B22: ACGUUAC (DNA:RNA)
RNA: B1 RNA with U25A, C27G, C28U, C30A, U31C
DNA 1: CAATCTGAATTCCGGTCTCCC
DNA 2: TGGTGGCTACGACGGGATT
B23: CGGCAAC (DNA:RNA)
RNA: B4 RNA with G25C, G28C, G30A, A31C
DNA 1: CAATCTGAATTCCGGTCTCCC
DNA 2: TGGTGGCTACGACGGGATT
B24: AUUUCGU (DNA:RNA)
RNA: B4 RNA with G25A, G26U, G27U, G28U, A29C, A31U
DNA 1: CAATCTGAATTCCGGTCTCCC
DNA 2: TGGTGGCTACGACGGGATT
B25: AAGUAGC (DNA:RNA)
RNA: B4 RNA with G25A, G26A, G28U, A31C
DNA 1: CAATCTGAATTCCGGTCTCCC
DNA 2: TGGTGGCTACGACGGGATT
B26: ACAGAAU (DNA:RNA)
RNA: B4 RNA with G25A, G26C, G27A, G30A, A31U
DNA 1: CAATCTGAATTCCGGTCTCCC
DNA 2: TGGTGGCTACGACGGGATT
B27: ACCUCGC (DNA:RNA)
RNA: B1 RNA with U25A, C28U, U29C, C30G, U31C
DNA 1: CAATCTGAATTCCGGTCTCCC
DNA 2: TGGTGGCTACGACGGGATT
B28: CGUAUGU (DNA:RNA)
RNA: B4 RNA with G25C, G27U, G28A, A29U, A31U
DNA 1: CAATCTGAATTCCGGTCTCCC
DNA 2: TGGTGGCTACGACGGGATT
B29: ACUGUGC (DNA:RNA)
RNA: B4 RNA with G25A, G26C, G27U, A29U, A31C
DNA 1: CAATCTGAATTCCGGTCTCCC
DNA 2: TGGTGGCTACGACGGGATT
B30: GACCAGA (DNA:RNA)
RNA: B4 RNA with G26A, G27C, G28C
DNA 1: CAATCTGAATTCCGGTCTCCC
DNA 2: TGGTGGCTACGACGGGATT
B31: CCCUCAC (DNA:RNA)
RNA: B1 RNA with U25C, C28U, U29C, C30A, U31C
DNA 1: CAATCTGAATTCCGGTCTCCC
DNA 2: TGGTGGCTACGACGGGATT

The target of the experiment is T1, RBFOX1 RRM RbFoxmut (Fox-RRM*). Nature of the experiment: EMSA; HiTS-Eq, 1 nM pool, 10 min; buffer printed only for the single-RNA assays: 10 mM Tris pH 7.5, 150 mM NaCl, 3.4 mM EDTA, 0.001% NP-40, 30 C. The following applies: tags: His6 N-terminal (pET28a); label: 5' 32P. Summed up:
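Purified wild-type or mutant RbFox RRM at increasing concentrations was equilibrated with 1 nM of 5′-radiolabelled RNA carrying 7 randomized nucleotides for 10 min in 50 µL. Unbound RNA was separated by 8% native PAGE and sequenced. Relative association constants came from read-count changes of each RNA species compared with the control reaction, normalised to the cognate motif.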
Regarding B1, the binding signal is 0.0905 KA relative to UGCAUGU.

Regarding B2, the binding signal was 0.0984 KA relative to UGCAUGU.

In the case of B3, the binding signal is 0.0713 KA relative to UGCAUGU.

For B4, the binding signal was 0.117 KA relative to UGCAUGU.

For B5, the binding signal is 0.072 KA relative to UGCAUGU.

B6: the binding signal was 0.115 KA relative to UGCAUGU.

For the molecule B7, the binding signal is 0.11 KA relative to UGCAUGU.

As to B8, the binding signal was 0.402 KA relative to UGCAUGU.

For B9, the binding signal is 0.141 KA relative to UGCAUGU.

Turning to B10, the binding signal was 0.0697 KA relative to UGCAUGU.

For B11, the binding signal is 0.126 KA relative to UGCAUGU.

For the molecule B12, the binding signal is 0.122 KA relative to UGCAUGU.

Turning to B13, the binding signal was 0.0363 KA relative to UGCAUGU.

As to B14, the binding signal was 0.0536 KA relative to UGCAUGU.

Take B15: the binding signal was 0.122 KA relative to UGCAUGU.

Turning to B16, the binding signal was 0.118 KA relative to UGCAUGU.

For the molecule B17, the binding signal was 0.0815 KA relative to UGCAUGU.

For the molecule B18, the binding signal was 0.0642 KA relative to UGCAUGU.

As for B19, the binding signal is 0.538 KA relative to UGCAUGU.

Take B20: the binding signal is 0.095 KA relative to UGCAUGU.

In the case of B21, the binding signal was 0.132 KA relative to UGCAUGU.

As for B22, the binding signal was 0.0964 KA relative to UGCAUGU.

As for B23, the binding signal was 0.0506 KA relative to UGCAUGU.

As for B24, the binding signal was 0.126 KA relative to UGCAUGU.

In the case of B25, the binding signal was 0.0939 KA relative to UGCAUGU.

As for B26, the binding signal is 0.0937 KA relative to UGCAUGU.

Take B27: the binding signal is 0.0949 KA relative to UGCAUGU.

As for B28, the binding signal is 0.554 KA relative to UGCAUGU.

Turning to B29, the binding signal is 0.135 KA relative to UGCAUGU.

For B30, the binding signal is 0.0823 KA relative to UGCAUGU.

Take B31: the binding signal is 0.103 KA relative to UGCAUGU.
